Data published in PMC8637573, “EWS–FLI1‐targeting peptide identifies Ewing sarcoma tumor boundaries and lymph node metastasis via near‐infrared imaging” (Molecular Oncology, 2021).
Residues, ends and D or L forms follow the SMILES beside them.

Test system: A673 xenograft tumors
Test: In vivo NIR imaging of ES xenograft model
Conditions: blocking group: locally incubated with 50 μM blocking agent (intratumoral pre‐injection, 1 h) before 150 μL CS2‐N‐E9R i.v.; n = 3 mice
Description: All procedures were carried out in compliance with the guide for the care and use of laboratory animal resources and the national research council, and approved by the Animal Biosafety Level 3 Laboratory of Wuhan University Institutional Animal Care and Use Committee (2019131). Mice were purchased from the Model Animal Laboratory of Wuhan University Zhongnan Hospital and housed in a specific pathogen‐free animal facility with a controlled environment (12 h light/dark cycle at 21 °C). To establish an ES xenograft mice model, A673 cells were grown subcutaneously around the right limb of 12‐16 g, 4‐week‐old Balb/c nude mice. Twenty‐one days after inoculation, the xenograft tumor mice were randomly divided into 3 groups (Experimental group/ CS2‐N‐E9R; Control group/ CS2‐N‐E; Blocking group/ CS2‐N‐E9R+E9R). Probes were freshly prepared at the concentration of 25 μM. The experimental group was given 150 μL targeted probe CS2‐N‐E9R, and the control group was given 150 μL nontargeted probe CS2‐N‐E through caudal vein injection. […]
To quantitate NIR fluoresces signal, a circular region‐of‐interest (ROI) was manually defined in the interested region, and the average signal within this ROI was obtained. […] The statistical significance of differences was determined by ANOVA and LSD‐t test. […]

CC[C@H](C)[C@H](NC(=O)[C@@H](NC(=O)[C@H](C)NC(=O)[C@H](CC(=O)O)NC(=O)[C@H](CC(C)C)NC(=O)[C@@H]1CCCN1C(=O)[C@@H]1CCCN1C(=O)[C@@H]1CCCN1)C(C)C)C(=O)N[C@@H](CCC(=O)O)C(=O)N[C@@H](C)C(=O)O [E9R] (H-PPPLDAVIEA-OH; N-terminus assumed)
tumor region fluorescence of CS2‐N‐E9R versus background after blocking: no fluorescence higher than the background
